# Measurements from PubChem BioAssay AID1745853 (National Center for Advancing Translational Sciences (NCATS), 2022).
# The other results are listed elsewhere or left out. These are further read-outs of the screen, such as a control signal, another cell line or another target. No call is given for them.
# Key:
# Experiment in all cases: Primary Screen for Target Class Profiling of Small Molecule Inhibitors of Methyltransferases
# [1] = biological target: Glycine N-methyltransferase (Homo sapiens) (UniProt Q14749); conditions: purified enzyme, MTase-Glo SAH luminescence; measured here: GNMT inhibition; at 40 µM; stronger effect = lower value
# Text: (§1) PI: Matthew D. Hall Ph.D. and Quinlin M. Hanson Ph.D.
# (§2) National Center for Advancing Translational Sciences (NCATS)
# (§3) National Institute of Health (NIH), Rockville, MD
# (§4) Target class profiling (TCP) is a chemical biology approach amenable to investigating understudied biological targets. TCP is achieved by developing a generalizable assay platform and applying it to screen a curated set of compound libraries against representative members of a target class. Small molecule methyltransferases (SMMTase) are a subclass of methyltransferase that act on metabolites to modulate signaling pathways, metabolize xenobiotics, or balance the available methyl pool. We screened four curated libraries totaling 27,574 unique compounds against the SMMTases nicotinamide N-methyltransferase (NNMT), phenylethanolamine N-methyltransferase (PNMT), histamine N-methyltransferase (HNMT), glycine N-methyltransferase (GNMT), catechol O-methyltransferase (COMT), and guanidinoacetate N-methyltransferase (GAMT). The data generated by this TCP can be leveraged for informed tool molecule development. For example, in the associated publication we identified a chemotype of HNMT-selective inhibitors. Additionally, we identified a putative SMMTase-selective inhibitor with potential as a tool molecule for studying broader methyltransferase biology.
# (§5) High-through put screening assays were developed at the National Center for Advancing Translational Science (NCATS) for the enzymes NNMT, PNMT, HNMT, GNMT, COMT, and GAMT. Enzymatic activity was measured as a function of SAM cofactor conversion using the MTase Glo kit (Promega) for all enzymes. All assays were performed in 1536-well format with substrates and SAM concentrations at KM values. Enzyme concentration and assay timing were optimized for 10-20% SAM conversion. Initial screening of 27,574 compounds was done as single-point assays using the highest compound concentration (40 uM). […] These compounds were replated in 11-point dose response and assayed against NNMT, PNMT, HNMT, GNMT, COMT, GAMT, and a counter-assay. The IC50 and efficacy (maximal response) values were determined for each dose-response curve. These values are also accounted for in the area under the curve (AUC) values.
# (§6) PROTOCOL TABLE (as described by Inglese J, Shamu CE and Guy RK. 2007)
# (§7) SEQUENCE No. (e.g., 1, 2, 3, etc.); […] (e.g., Cells, Incubation, Reagent, etc.); VALUE; DESCRIPTION.
# (§8) 1; Reagent; 2 uL; SMMTase Enzyme (2x) in reaction buffer, columns 1- 48.
# (§9) 2; Reagent; 1 uL; SAM (4x) in reaction buffer, columns 1-48.
# (§10) 3; Controls; 23 nL; DMSO in column 4; sinefungin in DMSO (0 uM - 40 uM) in 7-point 1:2 dilution series (n = 2) in column 2.
# (§11) 4; Compounds; 23 nL; Columns 5-48.
# (§12) 5; Reagent; 1 uL; Substrate (4x) in reaction buffer, columns 2-48.
# (§13) 6; Time; 20-30 min; Incubation.
# (§14) 7; Reagent; 1 uL; MTase-Glo reagent (5X), columns 1-48.
# (§15) 8; Time; 30 min; Incubation.
# (§16) 9; Reagent; 5 uL; MTase-Glo Detection reagent, columns 1-48.
# (§17) 10; Time; 30 min; Incubation, luminescence evolution.
# (§18) 11; Detection; Luminescence; ViewLux uHTS Microplate Imager (PerkinElmer).
# (§19) NOTES (numbers refer to Sequence numbers above)
# (§20) 1, 2, 5. White Medium Binding Greiner 1536-well plates (Cat #789175-F, Greiner Bio-One, Monroe, NC); Reaction buffer: 50 mM Tris, pH 8.0, 3 mM MgCl2, 1 mM EDTA, 50 mM NaCl, 1 mM DTT, and 0.1 mg/mL BSA. Evaporation was prevented by covering assay plates with metal lids containing holes to allow gas diffusion.
# (§21) 1. Six SMMTase were profiled: HNMT, GNMT, PNMT, COMT, NNMT, GAMT
# (§22) 5. The corresponding substrate was used for each enzyme: HNMT - 5.3 uM Histamine; GNMT - >500 uM Glycine; PNMT - 16.2 uM Norephinephrine; COMT - 13.7 uM Norephinephrine; NNMT - 3.8 uM Nicotinamide; GAMT - 2.5 uM Guanidinoacetate.6, 8, 10. Room temperature
# (§23) 6. Final reaction conditions: 10 nM COMT, 5 uM SAM, 15 uM norepinephrine, 50 mM Tris, pH 8.0, 3 mM MgCl2, 1 mM EDTA, 50 mM NaCl, 1 mM DTT, and 0.1 mg/mL BSA; refer to tables 2 and S1 for specific timing.
# 8. […]
# [2] = biological target: Guanidinoacetate N-methyltransferase (Homo sapiens) (UniProt Q14353); conditions: purified enzyme, MTase-Glo SAH luminescence; measured here: GAMT inhibition; at 40 µM; stronger effect = lower value
# Text: as §1, §2, §3, §4, §5, §6, §7, §8, §9, §10, §11, §12, §13, §14, §15, §16, §17, §18, §19, §20, §21, §22, §23
# 8. […]
# [3] = biological target: Histamine N-methyltransferase (Homo sapiens) (UniProt P50135); conditions: purified enzyme, MTase-Glo SAH luminescence; measured here: HNMT inhibition; at 40 µM; stronger effect = lower value
# Text: as §1, §2, §3, §4, §5, §6, §7, §8, §9, §10, §11, §12, §13, §14, §15, §16, §17, §18, §19, §20, §21, §22, §23
# 8. […]
# [4] = biological target: Nicotinamide N-methyltransferase (Homo sapiens) (UniProt P40261); conditions: purified enzyme, MTase-Glo SAH luminescence; measured here: NNMT inhibition; at 40 µM; stronger effect = lower value
# Text: as §1, §2, §3, §4, §5, §6, §7, §8, §9, §10, §11, §12, §13, §14, §15, §16, §17, §18, §19, §20, §21, §22, §23
# 8. […]
# [5] = biological target: Phenylethanolamine N-methyltransferase (Homo sapiens) (UniProt P11086); conditions: purified enzyme, MTase-Glo SAH luminescence; measured here: PNMT inhibition; at 40 µM; stronger effect = lower value
# Text: as §1, §2, §3, §4, §5, §6, §7, §8, §9, §10, §11, §12, §13, §14, §15, §16, §17, §18, §19, §20, §21, §22, §23
# 8. […]
# On the % scale 0 is the no-effect control and ±100 the full control effect.
Structure (SMILES),"activity change, negative = inhibition [1]","activity change, negative = inhibition [2]","activity change, negative = inhibition [3]","activity change, negative = inhibition [4]","activity change, negative = inhibition [5]"
CNC(=O)C1(N2CCC[C@H]2C(=O)N(C)Cc2cccnc2)CCOCC1,-3.84%,-10.9%,-1.11%,-11.1%,6.58%
CCOc1ccc(C2c3cccn3-c3sc4c(c3CN2C(=O)Nc2ccc(F)cc2)CCCC4)cc1 (stereo not given),0.531%,1.18%,3.48%,6.26%,9.82%
COCCNc1nc2c(S(=O)(=O)c3ccccc3)nnn2c2ccc(Cl)cc12,-6.75%,0.129%,5.89%,-1.74%,-1.56%
COc1ccccc1CNC(=O)c1ccc2c(=O)nc3c(-c4cccc(F)c4)n[nH]n3c2c1,-9.13%,4.41%,-4.88%,-10.3%,-4.78%
C=C1C(O)C(OC(=O)c2ccccc2)C2C(C)(C(=O)O)CCCC2(C)C1CC/C(C)=C\CO (stereo not given),-6.18%,6.96%,2.57%,-12.1%,-0.145%
CC(C)c1noc(-c2cn(C3CCN(C(=O)c4ccc(Cl)s4)C3)nn2)n1 (stereo not given),-5.97%,-4.6%,-0.307%,-13%,-8.19%
Cn1cc(CN2CCN(c3ccc(C#N)cn3)CC2)c(-c2ccccc2)n1,-4.16%,-0.002%,0.053%,-9.07%,-3.41%
CN(C)C[C@@H]1CN(c2ccncn2)C[C@H]1NC(=O)COc1ccccc1,-5.09%,-1.09%,-1.58%,-2.84%,-2.5%
CC(C)C1c2cccn2CCN1C(=O)Nc1ccc(F)c(Cl)c1 (stereo not given),12.1%,1.26%,6.58%,2.23%,9.29%
COCCC1(NC(=O)C2CC2)CCN(S(=O)(=O)c2cc(OC)ccc2OC)CC1,2.63%,1.8%,14.6%,6%,7.77%
Cc1cc(C)cc(NS(=O)(=O)c2cc3c(cc2Cl)n(C)c(=O)n3C)c1,12.6%,0%,7.41%,7.39%,11%
CCC(C)NC(=O)Cn1ccc2cc(S(=O)(=O)N3CCCC3)ccc21 (stereo not given),7.39%,0%,4.51%,3.34%,2.03%
COc1ccc(F)cc1-c1cc(NC(=O)[C@@H]2CCCNC2)ncc1Cl,-13%,-7.37%,-12.6%,-34.6%,-1.43%
Nc1nc2c(ncn2C2OC3COP(=O)(O)OC3C2O)c(=O)[nH]1 (stereo not given),-2.29%,7.58%,-3.04%,-16.5%,-10.3%
CC1(C(=O)NCc2ccccc2)Cn2c(cc3ccccc32)C(=O)N1Cc1ccccc1Br (stereo not given),-8.81%,-0.24%,-4.39%,-15.6%,-4.78%
